{
  "source": "the supplement of paper PMC8728848",
  "binders": {"B1": {"name": "RfpB (Mycobacterium tuberculosum), O05594 (protein)", "chain": "MAAGLVTASMSLSTAVAHAGPSPNWDAVAQCESGGNWAANTGNGKYGGLQFKPATWAAFGGVGNPAAASREQQIAVANRVLAEQGLDAWPTCGAASGLPIALWSKPAQGIKHAGPSPNWDAVAQCESGGNWAANTGNGKYGGLQFKPATWAAFGGVGNPAAASREQQIAVANRVLAEQGLDAWPTCGA"}},
  "assay_in_all_cases": "glycan array binding signal (z-score within array); higher = stronger binding",
  "conditions_in_all_cases": "glycan notation: IUPAC condensed, linker removed",
  "key": {"[1]": {"target": "Gal(b1-3)[GlcNAc(b1-6)]GalNAc", "procedure,_shortened": "(§1)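 Negative Z-scores can be read as non-binding. The Z-score is calculated within each array and then averaged across arrays of one protein sequence at different concentrations or buffers and across linkers. Arrays, 3228 in all, were curated from the Consortium for Functional Glycomics database and kept only where the protein sequence was available.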"}, "[2]": {"target": "Gal(b1-3)[Neu5Ac(a2-6)]GalNAc", "procedure,_shortened": "as §1"}, "[3]": {"target": "Gal(b1-3)[Neu5Ac(a2-6)]GlcNAc(b1-6)Gal(b1-4)Glc", "procedure,_shortened": "as §1"}, "[4]": {"target": "Gal(b1-3)[Neu5Ac(b2-6)]GalNAc", "procedure,_shortened": "as §1"}, "[5]": {"target": "Gal(b1-4)GalNAc(a1-3)[Fuc(a1-2)]Gal(b1-4)GlcNAc", "procedure,_shortened": "as §1"}, "[6]": {"target": "Gal(b1-4)GalNAc(b1-3)[Fuc(a1-2)]Gal(b1-4)GlcNAc", "procedure,_shortened": "as §1"}, "Gal(b1-4)Glc": {"target": "Gal(b1-4)Glc", "procedure,_shortened": "as §1"}, "Gal(b1-4)Glc6S": {"target": "Gal(b1-4)Glc6S", "procedure,_shortened": "as §1"}, "Gal(b1-4)GlcNAc": {"target": "Gal(b1-4)GlcNAc", "procedure,_shortened": "as §1"}, "[7]": {"target": "Gal(b1-4)GlcNAc(a1-6)Gal(b1-4)GlcNAc", "procedure,_shortened": "as §1"}, "[8]": {"target": "Gal(b1-4)GlcNAc(b1-2)Man(a1-3)[Gal(b1-4)GlcNAc(b1-2)Man(a1-6)]Man(b1-4)GlcNAc(b1-4)GlcNAc", "procedure,_shortened": "as §1"}, "[9]": {"target": "Gal(b1-4)GlcNAc(b1-3)Gal(b1-3)GlcNAc", "procedure,_shortened": "as §1"}, "[10]": {"target": "Gal(b1-4)GlcNAc(b1-3)Gal(b1-4)Glc", "procedure,_shortened": "as §1"}, "[11]": {"target": "Gal(b1-4)GlcNAc(b1-3)Gal(b1-4)GlcNAc", "procedure,_shortened": "as §1"}, "[12]": {"target": "Gal(b1-4)GlcNAc(b1-3)Gal(b1-4)GlcNAc(b1-3)Gal(b1-4)GlcNAc", "procedure,_shortened": "as §1"}, "[13]": {"target": "Gal(b1-4)GlcNAc(b1-3)Gal(b1-4)[Fuc(a1-3)]GlcNAc(b1-3)Gal(b1-4)[Fuc(a1-3)]GlcNAc", "procedure,_shortened": "as §1"}, "[14]": {"target": "Gal(b1-4)GlcNAc(b1-3)GalNAc", "procedure,_shortened": "as §1"}, "[15]": {"target": "Gal(b1-4)GlcNAc(b1-3)[Gal(b1-4)GlcNAc(b1-6)]Gal(b1-4)GlcNAc", "procedure,_shortened": "as §1"}, "[16]": {"target": "Gal(b1-4)GlcNAc(b1-3)[GlcNAc(b1-6)]Gal(b1-4)GlcNAc", "procedure,_shortened": "as §1"}, "[17]": {"target": "Gal(b1-4)GlcNAc(b1-6)Gal(b1-4)GlcNAc", "procedure,_shortened": "as §1"}, "[18]": {"target": "Gal(b1-4)GlcNAc(b1-6)Gal(b1-4)GlcNAc(b1-6)GalNAc", "procedure,_shortened": "as §1"}, "[19]": {"target": "Gal(b1-4)GlcNAc(b1-6)GalNAc", "procedure,_shortened": "as §1"}, "[20]": {"target": "Gal(b1-4)GlcNAc(b1-6)[Gal(b1-3)]GalNAc", "procedure,_shortened": "as §1"}, "Gal3S(b1-3)GalNAc": {"target": "Gal3S(b1-3)GalNAc", "procedure,_shortened": "as §1"}, "Gal3S(b1-3)GlcNAc": {"target": "Gal3S(b1-3)GlcNAc", "procedure,_shortened": "as §1"}, "[21]": {"target": "Gal3S(b1-3)[Fuc(a1-4)]GlcNAc", "procedure,_shortened": "as §1"}, "Gal3S(b1-4)Glc": {"target": "Gal3S(b1-4)Glc", "procedure,_shortened": "as §1"}, "Gal3S(b1-4)Glc6S": {"target": "Gal3S(b1-4)Glc6S", "procedure,_shortened": "as §1"}, "Gal3S(b1-4)GlcNAc": {"target": "Gal3S(b1-4)GlcNAc", "procedure,_shortened": "as §1"}, "Gal3S(b1-4)GlcNAc6S": {"target": "Gal3S(b1-4)GlcNAc6S", "procedure,_shortened": "as §1"}, "[22]": {"target": "Gal3S(b1-4)[Fuc(a1-3)]Glc", "procedure,_shortened": "as §1"}, "Gal3S4S(b1-4)GlcNAc": {"target": "Gal3S4S(b1-4)GlcNAc", "procedure,_shortened": "as §1"}, "Gal3S6S(b1-4)GlcNAc": {"target": "Gal3S6S(b1-4)GlcNAc", "procedure,_shortened": "as §1"}, "Gal3S6S(b1-4)GlcNAc6S": {"target": "Gal3S6S(b1-4)GlcNAc6S", "procedure,_shortened": "as §1"}, "Gal4S(b1-4)GlcNAc": {"target": "Gal4S(b1-4)GlcNAc", "procedure,_shortened": "as §1"}, "Gal4S6S(b1-4)GlcNAc": {"target": "Gal4S6S(b1-4)GlcNAc", "procedure,_shortened": "as §1"}, "Gal6S(b1-4)Glc": {"target": "Gal6S(b1-4)Glc", "procedure,_shortened": "as §1"}, "Gal6S(b1-4)Glc6S": {"target": "Gal6S(b1-4)Glc6S", "procedure,_shortened": "as §1"}, "Gal6S(b1-4)GlcNAc": {"target": "Gal6S(b1-4)GlcNAc", "procedure,_shortened": "as §1"}, "Gal6S(b1-4)GlcNAc6S": {"target": "Gal6S(b1-4)GlcNAc6S", "procedure,_shortened": "as §1"}, "GalNAc(a1-3)Gal": {"target": "GalNAc(a1-3)Gal", "procedure,_shortened": "as §1"}, "GalNAc(a1-3)GalNAc": {"target": "GalNAc(a1-3)GalNAc", "procedure,_shortened": "as §1"}, "GalNAc(b1-3)Gal": {"target": "GalNAc(b1-3)Gal", "procedure,_shortened": "as §1"}, "[23]": {"target": "GalNAc(b1-3)Gal(a1-4)Gal(b1-4)GlcNAc", "procedure,_shortened": "as §1"}, "GalNAc(b1-3)GalNAc": {"target": "GalNAc(b1-3)GalNAc", "procedure,_shortened": "as §1"}},
  "note": "This is one part of the list.",
  "data": [
    {"binder": "B1", "values": [
      {"measurement": "glycan array binding signal (z-score)", "setting": "[1]", "value": -0.253},
      {"measurement": "glycan array binding signal (z-score)", "setting": "[2]", "value": -0.339},
      {"measurement": "glycan array binding signal (z-score)", "setting": "[3]", "value": 0.441},
      {"measurement": "glycan array binding signal (z-score)", "setting": "[4]", "value": 0.209},
      {"measurement": "glycan array binding signal (z-score)", "setting": "[5]", "value": -0.206},
      {"measurement": "glycan array binding signal (z-score)", "setting": "[6]", "value": 0.958},
      {"measurement": "glycan array binding signal (z-score)", "setting": "Gal(b1-4)Glc", "value": 0.122},
      {"measurement": "glycan array binding signal (z-score)", "setting": "Gal(b1-4)Glc6S", "value": 1.11},
      {"measurement": "glycan array binding signal (z-score)", "setting": "Gal(b1-4)GlcNAc", "value": 0.645},
      {"measurement": "glycan array binding signal (z-score)", "setting": "[7]", "value": -0.169},
      {"measurement": "glycan array binding signal (z-score)", "setting": "[8]", "value": -0.1},
      {"measurement": "glycan array binding signal (z-score)", "setting": "[9]", "value": -0.17},
      {"measurement": "glycan array binding signal (z-score)", "setting": "[10]", "value": -0.146},
      {"measurement": "glycan array binding signal (z-score)", "setting": "[11]", "value": -0.354},
      {"measurement": "glycan array binding signal (z-score)", "setting": "[12]", "value": -0.608},
      {"measurement": "glycan array binding signal (z-score)", "setting": "[13]", "value": 9.72},
      {"measurement": "glycan array binding signal (z-score)", "setting": "[14]", "value": 0.332},
      {"measurement": "glycan array binding signal (z-score)", "setting": "[15]", "value": -0.758},
      {"measurement": "glycan array binding signal (z-score)", "setting": "[16]", "value": 2.74},
      {"measurement": "glycan array binding signal (z-score)", "setting": "[17]", "value": 0.323},
      {"measurement": "glycan array binding signal (z-score)", "setting": "[18]", "value": 0.001},
      {"measurement": "glycan array binding signal (z-score)", "setting": "[19]", "value": -0.451},
      {"measurement": "glycan array binding signal (z-score)", "setting": "[20]", "value": -0.262},
      {"measurement": "glycan array binding signal (z-score)", "setting": "Gal3S(b1-3)GalNAc", "value": -0.674},
      {"measurement": "glycan array binding signal (z-score)", "setting": "Gal3S(b1-3)GlcNAc", "value": -0.357},
      {"measurement": "glycan array binding signal (z-score)", "setting": "[21]", "value": -0.633},
      {"measurement": "glycan array binding signal (z-score)", "setting": "Gal3S(b1-4)Glc", "value": 0.415},
      {"measurement": "glycan array binding signal (z-score)", "setting": "Gal3S(b1-4)Glc6S", "value": -0.122},
      {"measurement": "glycan array binding signal (z-score)", "setting": "Gal3S(b1-4)GlcNAc", "value": -0.124},
      {"measurement": "glycan array binding signal (z-score)", "setting": "Gal3S(b1-4)GlcNAc6S", "value": -0.1},
      {"measurement": "glycan array binding signal (z-score)", "setting": "[22]", "value": -0.568},
      {"measurement": "glycan array binding signal (z-score)", "setting": "Gal3S4S(b1-4)GlcNAc", "value": 0.78},
      {"measurement": "glycan array binding signal (z-score)", "setting": "Gal3S6S(b1-4)GlcNAc", "value": -0.058},
      {"measurement": "glycan array binding signal (z-score)", "setting": "Gal3S6S(b1-4)GlcNAc6S", "value": -0.489},
      {"measurement": "glycan array binding signal (z-score)", "setting": "Gal4S(b1-4)GlcNAc", "value": 0.029},
      {"measurement": "glycan array binding signal (z-score)", "setting": "Gal4S6S(b1-4)GlcNAc", "value": 0.03},
      {"measurement": "glycan array binding signal (z-score)", "setting": "Gal6S(b1-4)Glc", "value": -0.576},
      {"measurement": "glycan array binding signal (z-score)", "setting": "Gal6S(b1-4)Glc6S", "value": 0.008},
      {"measurement": "glycan array binding signal (z-score)", "setting": "Gal6S(b1-4)GlcNAc", "value": -0.728},
      {"measurement": "glycan array binding signal (z-score)", "setting": "Gal6S(b1-4)GlcNAc6S", "value": 0.314},
      {"measurement": "glycan array binding signal (z-score)", "setting": "GalNAc(a1-3)Gal", "value": 0.545},
      {"measurement": "glycan array binding signal (z-score)", "setting": "GalNAc(a1-3)GalNAc", "value": 0.294},
      {"measurement": "glycan array binding signal (z-score)", "setting": "GalNAc(b1-3)Gal", "value": 0.538},
      {"measurement": "glycan array binding signal (z-score)", "setting": "[23]", "value": 0.511},
      {"measurement": "glycan array binding signal (z-score)", "setting": "GalNAc(b1-3)GalNAc", "value": 0.59}
    ]}
  ]
}
